Values joined by “and” are separate entries in the source; they are usually repeats but may differ in a detail not shown here. Identical values can stand only once.
How the values were obtained:
[1] = biological target: mouse DLL3 on CHO K1-mDLL3 cells (mouse) (UniProt O88516); test: FACS, CHO-K1-mDLL3 cells, 20 nM antibody
[2] = biological target: human DLL1 protein (Acro, Cat. No. DL1-H52H8) (human) (UniProt O00548); test: ELISA, coated hDLL1; maximum over 0.1, 1, 10, 100 nM antibody
[3] = biological target: DLL3 endogenously expressed on NCI-H82 cells (UniProt Q9NYJ7); test: FACS on NCI-H82 cells; antibody 0.8 nM
[4] = biological target: human DLL3 protein expressed on CHO-K1 recombinant cells (human DLL3 extracellular segment fused to EpCAM transmembrane and intracellular regions) (human) (UniProt Q9NYJ7); test: FACS, CHO-K1 hDLL3 cells, 0.032 nM antibody
[5] = biological target: human DLL4 protein (Acro, Cat. No. DL4-H5227) (human) (UniProt Q9NR61); test: ELISA, coated hDLL4; maximum over 0.1, 1, 10, 100 nM antibody
[6] = biological target: DLL3 endogenously expressed on NCI-H82 cells (UniProt Q9NYJ7); test: FACS on NCI-H82 cells; antibody 0.16 nM
[7] = biological target: human DLL3 protein expressed on CHO-K1 recombinant cells (human DLL3 extracellular segment fused to EpCAM transmembrane and intracellular regions) (human) (UniProt Q9NYJ7); test: FACS, CHO-K1 hDLL3 cells, 0.8 nM antibody
[8] = biological target: mouse DLL3 on CHO K1-mDLL3 cells (mouse) (UniProt O88516); test: FACS, CHO-K1-mDLL3 cells, 4 nM antibody
[9] = biological target: monkey DLL3 on CHO-K1-cyno DLL3 cells (cynomolgus monkey); test: FACS, CHO-K1-cyno DLL3 cells, 4 nM antibody
Chain of monkey DLL3 on CHO-K1-cyno DLL3 cells (cynomolgus monkey) (chain, as listed by the source limits assumed): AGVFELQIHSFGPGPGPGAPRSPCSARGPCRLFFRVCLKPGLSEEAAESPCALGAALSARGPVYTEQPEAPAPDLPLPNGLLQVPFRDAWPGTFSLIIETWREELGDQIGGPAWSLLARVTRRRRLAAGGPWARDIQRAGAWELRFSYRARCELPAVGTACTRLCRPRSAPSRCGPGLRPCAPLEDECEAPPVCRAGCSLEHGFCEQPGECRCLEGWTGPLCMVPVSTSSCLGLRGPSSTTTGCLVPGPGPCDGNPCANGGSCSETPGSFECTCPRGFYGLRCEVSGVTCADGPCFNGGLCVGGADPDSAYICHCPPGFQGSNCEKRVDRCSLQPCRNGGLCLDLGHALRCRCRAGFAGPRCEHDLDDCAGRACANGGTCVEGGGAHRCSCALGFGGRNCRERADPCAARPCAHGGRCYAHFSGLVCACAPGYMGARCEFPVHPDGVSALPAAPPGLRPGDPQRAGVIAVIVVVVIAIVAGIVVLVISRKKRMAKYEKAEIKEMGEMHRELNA

[10] = biological target: human DLL3 on CHO-K1 hDLL3 cells (human) (UniProt Q9NYJ7); test: FACS, CHO-K1 hDLL3 #7
[11] = biological target: monkey DLL3 on CHO-K1-cyno DLL3 cells (cynomolgus monkey); test: FACS, CHO-K1-cyno DLL3 cells, 0.00128 nM antibody
[12] = biological target: human DLL3 protein expressed on CHO-K1 recombinant cells (human DLL3 extracellular segment fused to EpCAM transmembrane and intracellular regions) (human) (UniProt Q9NYJ7); test: FACS, CHO-K1 hDLL3 cells, 4 nM antibody
[13] = biological target: human DLL3 on CHO-K1 hDLL3 cells (human) (UniProt Q9NYJ7); test: FACS, CHO-K1 hDLL3 #11
[14] = biological target: human delta-like ligand 3 (DLL3) on SHP77 cells (human) (UniProt Q9NYJ7); test: FACS on SHP77 cells
[15] = biological target: DLL3 endogenously expressed on NCI-H82 cells (UniProt Q9NYJ7); test: FACS on NCI-H82 cells; antibody 4 nM
[16] = biological target: DLL3 endogenously expressed on NCI-H82 cells (UniProt Q9NYJ7); test: FACS on NCI-H82 cells; antibody 100 nM
[17] = biological target: human DLL3 on CHO-K1 hDLL3 cells (human) (UniProt Q9NYJ7); test: FACS, CHO-K1 hDLL3 #5
[18] = biological target: DLL3 endogenously expressed on NCI-H82 cells (UniProt Q9NYJ7); test: FACS on NCI-H82 cells; antibody 0.00128 nM
[19] = biological target: human DLL3 protein expressed on CHO-K1 recombinant cells (human DLL3 extracellular segment fused to EpCAM transmembrane and intracellular regions) (human) (UniProt Q9NYJ7); test: FACS, CHO-K1 hDLL3 cells, 20 nM antibody
[20] = biological target: mouse DLL3 on CHO K1-mDLL3 cells (mouse) (UniProt O88516); test: FACS, CHO K1-mDLL3 #4
[21] = biological target: monkey DLL3 on CHO K1-cyno DLL3 cells (cynomolgus monkey); test: FACS, CHO K1-cyno DLL3 #1
Chain of monkey DLL3 on CHO K1-cyno DLL3 cells (cynomolgus monkey) (chain, as listed by the source limits assumed): as above

[22] = biological target: mouse DLL3 on CHO K1-mDLL3 cells (mouse) (UniProt O88516); test: FACS, CHO-K1-mDLL3 cells, 100 nM antibody
[23] = biological target: monkey DLL3 on CHO K1-cyno DLL3 cells (cynomolgus monkey); test: FACS, CHO K1-cyno DLL3 #2
[24] = biological target: human DLL3 protein expressed on CHO-K1 recombinant cells (human DLL3 extracellular segment fused to EpCAM transmembrane and intracellular regions) (human) (UniProt Q9NYJ7); test: FACS, CHO-K1 hDLL3 cells, 0.00128 nM antibody
[25] = biological target: monkey DLL3 on CHO-K1-cyno DLL3 cells (cynomolgus monkey); test: FACS, CHO-K1-cyno DLL3 cells, 0.8 nM antibody
[26] = biological target: human DLL3 protein expressed on CHO-K1 recombinant cells (human DLL3 extracellular segment fused to EpCAM transmembrane and intracellular regions) (human) (UniProt Q9NYJ7); test: FACS, CHO-K1 hDLL3 cells, 100 nM antibody
[27] = biological target: DLL3 endogenously expressed on NCI-H82 cells (UniProt Q9NYJ7); test: FACS on NCI-H82 cells; antibody 20 nM
[28] = biological target: human DLL3 protein expressed on CHO-K1 recombinant cells (human DLL3 extracellular segment fused to EpCAM transmembrane and intracellular regions) (human) (UniProt Q9NYJ7); test: FACS, CHO-K1 hDLL3 cells, 0.16 nM antibody
[29] = biological target: DLL3 endogenously expressed on NCI-H82 cells (UniProt Q9NYJ7); test: FACS on NCI-H82 cells; antibody 0.0064 nM
[30] = biological target: mouse DLL3 on CHO K1-mDLL3 cells (mouse) (UniProt O88516); test: FACS, CHO-K1-mDLL3 cells, 0.0064 nM antibody
[31] = biological target: DLL3 endogenously expressed on NCI-H82 cells (UniProt Q9NYJ7); test: FACS on NCI-H82 cells; antibody 0.032 nM
[32] = biological target: monkey DLL3 on CHO-K1-cyno DLL3 cells (cynomolgus monkey); test: FACS, CHO-K1-cyno DLL3 cells, 0.16 nM antibody
[33] = biological target: mouse DLL3 on CHO K1-mDLL3 cells (mouse) (UniProt O88516); test: FACS, CHO K1-mDLL3 #6
[34] = biological target: monkey DLL3 on CHO-K1-cyno DLL3 cells (cynomolgus monkey); test: FACS, CHO-K1-cyno DLL3 cells, 0.0064 nM antibody
[35] = biological target: mouse DLL3 on CHO K1-mDLL3 cells (mouse) (UniProt O88516); test: FACS, CHO-K1-mDLL3 cells, 0.8 nM antibody
[36] = biological target: human DLL3 protein expressed on CHO-K1 recombinant cells (human DLL3 extracellular segment fused to EpCAM transmembrane and intracellular regions) (human) (UniProt Q9NYJ7); test: FACS, CHO-K1 hDLL3 cells, 0.0064 nM antibody
[37] = biological target: mouse DLL3 on CHO K1-mDLL3 cells (mouse) (UniProt O88516); test: FACS, CHO-K1-mDLL3 cells, 0.00128 nM antibody
[38] = biological target: monkey DLL3 on CHO-K1-cyno DLL3 cells (cynomolgus monkey); test: FACS, CHO-K1-cyno DLL3 cells, 20 nM antibody
[39] = biological target: mouse DLL3 on CHO K1-mDLL3 cells (mouse) (UniProt O88516); test: FACS, CHO-K1-mDLL3 cells, 0.16 nM antibody
[40] = biological target: monkey DLL3 on CHO-K1-cyno DLL3 cells (cynomolgus monkey); test: FACS, CHO-K1-cyno DLL3 cells, 0.032 nM antibody
[41] = biological target: monkey DLL3 on CHO-K1-cyno DLL3 cells (cynomolgus monkey); test: FACS, CHO-K1-cyno DLL3 cells, 100 nM antibody
[42] = biological target: mouse DLL3 on CHO K1-mDLL3 cells (mouse) (UniProt O88516); test: FACS, CHO-K1-mDLL3 cells, 0.032 nM antibody
[43] = biological target: monkey DLL3 on CHO K1-cyno DLL3 cells (cynomolgus monkey); test: FACS, CHO K1-cyno DLL3 #3
[44] = biological target: human DLL4 protein (human) (UniProt Q9NR61); test: ELISA, maximum over 0.1-100 nM
[45] = biological target: human DLL1 protein (human) (UniProt O00548); test: ELISA, maximum over 0.1-100 nM

B1: 2G1 scFv-hFc (Fc fusion)
scFv: QLQLQESGPGLVKPSETLSLTCTVSGGSISSSSYYWGWIRQPPGKGLEWIGSIYYSGNIYHNPSLKSRVSISVDTSKNQFSLRLSSVTAADTAVYYCAREIIVGATHFDYWGQGTLVTVSSGGGGSGGGGSGGGGSGGGGSAIQMTQSPSSLSASVGDRVTITCRASQGIRNDLGWYQQKPGKAPELLIYAASSLQSGVPSRFSGSGSGTDFTLTISSLQPEDFATYYCLQDYNYPLTFGPGTKVDIK[human IgG1 Fc with changes cut from this listing]
MFI [1]: 698 MFI | Emax of OD450 nm binding value [2]: 0.08 OD450 nm | MFI [3]: 422 | MFI [4]: 727 MFI | Emax of OD450 nm binding value [5]: 0.06 OD450 nm | MFI [6]: 286 | MFI [7]: 8510 MFI | MFI [8]: 672 MFI | MFI [9]: 8770 MFI | Mean fluorescence intensity of cells [10]: 2380 MFI | MFI [11]: 166 MFI | MFI [12]: 14100 MFI | Mean fluorescence intensity of cells [13]: 1630 MFI | MFI at 0.00128 nM [14]: 153 MFI | MFI at 0.0064 nM [14]: 188 MFI | MFI at 0.032 nM [14]: 286 MFI | MFI at 0.16 nM [14]: 618 MFI | MFI at 0.8 nM [14]: 1230 MFI | MFI at 4 nM [14]: 1490 MFI | MFI at 20 nM [14]: 1620 MFI | MFI at 100 nM [14]: 1890 MFI | MFI [15]: 472 | MFI [16]: 588 | Mean fluorescence intensity of cells [17]: 2000 MFI | MFI [18]: 100 | MFI [19]: 15600 MFI | Mean fluorescence intensity of cells [20]: 249 MFI | Mean fluorescence intensity of cells [21]: 734 MFI | MFI [22]: 673 MFI | Mean fluorescence intensity of cells [23]: 1560 MFI | MFI [24]: 159 MFI | MFI [25]: 6090 MFI | MFI [26]: 16600 MFI | MFI [27]: 500 | MFI [28]: 2510 MFI | MFI [29]: 114 | MFI [30]: 100 MFI | MFI [31]: 165 | MFI [32]: 2060 MFI | Mean fluorescence intensity of cells [33]: 349 MFI | MFI [34]: 267 MFI | MFI [35]: 497 MFI | MFI [36]: 283 MFI | MFI [37]: 92 MFI | MFI [38]: 9600 MFI | MFI [39]: 263 MFI | MFI [40]: 642 MFI | MFI [41]: 10900 MFI | MFI [42]: 138 MFI | Mean fluorescence intensity of cells [43]: 1580 MFI

B2: AMG757-4 scFv-hFc (Fc fusion)
scFv: QVQLQESGPGLVKPSETLSLTCTVSGGSISSYYWSWIRQPPGKCLEWIGYVYYSGTTNYNPSLKSRVTISVDTSKNQFSLKLSSVTAADTAVYYCASIAVTGFYFDYWGQGTLVTVSSGGGGSGGGGSGGGGSEIVLTQSPGTLSLSPGERVTLSCRASQRVNNNYLAWYQQRPGQAPRLLIYGASSRATGIPDRFSGSGSGTDFTLTISRLEPEDFAVYYCQQYDRSPLTFGCGTKLEIK[human IgG1 Fc with C220S (EU numbers) cut from this listing]
MFI [1]: 1800 MFI | Emax of OD450 nm binding value [2]: 0.37 OD450 nm | MFI [3]: 789 and 883 | Emax of OD450 nm binding value [5]: 0.6 OD450 nm | MFI [6]: 621 and 527 | MFI [7]: 8360 MFI and 4960 MFI | MFI [8]: 1580 MFI | MFI [9]: 7310 MFI | MFI [11]: 129 MFI | MFI [12]: 8930 MFI and 12400 MFI | MFI at 0.00128 nM [14]: 100 MFI and 121 MFI | MFI at 0.0064 nM [14]: 117 MFI and 160 MFI | MFI at 0.032 nM [14]: 175 MFI and 299 MFI | MFI at 0.16 nM [14]: 390 MFI and 668 MFI | MFI at 0.8 nM [14]: 773 MFI and 1030 MFI | MFI at 4 nM [14]: 911 MFI and 1090 MFI | MFI at 20 nM [14]: 1000 MFI and 1180 MFI | MFI at 100 nM [14]: 1150 MFI and 1360 MFI | MFI [15]: 836 and 942 | MFI [16]: 1100 and 1230 | MFI [18]: 120 and 123 | MFI [19]: 8940 MFI and 13100 MFI | MFI [22]: 1890 MFI | MFI [24]: 217 MFI and 130 MFI | MFI [25]: 5170 MFI | MFI [26]: 8790 MFI and 14000 MFI | MFI [27]: 944 and 1040 | MFI [29]: 160 and 139 | MFI [30]: 138 MFI | MFI [31]: 290 and 218 | MFI [32]: 1560 MFI | MFI [34]: 207 MFI | MFI [35]: 1170 MFI | MFI [36]: 420 MFI and 181 MFI | MFI [37]: 120 MFI | Emax of OD450 nm binding value [44]: 0.04 OD450 and 0.05 OD450 | Emax of OD450 nm binding value [45]: 0.04 OD450 and 0.05 OD450 and 0.06 OD450 | MFI [38]: 8100 MFI | MFI [39]: 532 MFI | MFI [40]: 469 MFI | MFI [41]: 8660 MFI | MFI [42]: 212 MFI
